This is an account of results in article PMC11446459.

What all share (assay): two-hybrid; Gal4 system (Matchmaker Gold); C1-FDX, ACP1, ACP2 in pGADT7, CI and CV subunits in pGBKT7; yeast AH109; growth on SD/-Trp/-Leu/-His/-Ade/+ x-α-gal for 4 days at 30°C
Test [1] has as its target T1, δ subunit of the F1 module of complex V, Gal4 DNA-binding domain fusion (Arabidopsis) (UniProt Q96252).
T1 sequence: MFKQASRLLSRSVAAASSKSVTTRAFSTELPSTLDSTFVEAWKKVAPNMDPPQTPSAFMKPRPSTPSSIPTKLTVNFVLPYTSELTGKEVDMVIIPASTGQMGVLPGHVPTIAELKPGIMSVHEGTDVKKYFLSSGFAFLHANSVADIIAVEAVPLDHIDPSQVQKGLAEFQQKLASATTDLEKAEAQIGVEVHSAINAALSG

The target of test [2] is T2, CAL2, CA domain subunit of complex I, Gal4 DNA-binding domain fusion (Arabidopsis) (UniProt Q9SMN1).
T2 sequence: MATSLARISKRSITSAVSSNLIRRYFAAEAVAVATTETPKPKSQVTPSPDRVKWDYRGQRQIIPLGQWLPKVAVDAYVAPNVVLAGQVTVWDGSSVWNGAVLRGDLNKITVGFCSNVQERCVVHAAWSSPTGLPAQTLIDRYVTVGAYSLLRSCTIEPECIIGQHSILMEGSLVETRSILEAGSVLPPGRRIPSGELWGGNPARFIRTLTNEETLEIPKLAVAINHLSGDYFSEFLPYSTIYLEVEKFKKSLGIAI

The target of test [3] is T3, CAL1, CA module subunit of complex I, Gal4 DNA-binding domain fusion (Arabidopsis) (UniProt Q9FMV1).
T3 sequence: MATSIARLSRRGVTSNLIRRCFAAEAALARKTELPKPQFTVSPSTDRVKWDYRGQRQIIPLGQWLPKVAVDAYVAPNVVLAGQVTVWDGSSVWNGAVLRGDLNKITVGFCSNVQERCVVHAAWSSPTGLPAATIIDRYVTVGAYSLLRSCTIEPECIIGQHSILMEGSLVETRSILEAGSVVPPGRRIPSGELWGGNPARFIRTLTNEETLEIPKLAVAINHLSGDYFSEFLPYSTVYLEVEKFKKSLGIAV

In test [4] the target is T4, A6, Q module subunit of complex I, Gal4 DNA-binding domain fusion (Arabidopsis) (UniProt Q9LHI0).
T4 sequence: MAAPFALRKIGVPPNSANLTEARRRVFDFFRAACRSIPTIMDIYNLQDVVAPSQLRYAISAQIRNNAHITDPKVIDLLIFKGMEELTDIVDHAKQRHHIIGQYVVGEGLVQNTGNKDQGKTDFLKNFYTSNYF

Results are given in words; binding and its absence hold for the method and conditions named. Some entries that bind do so weakly or less than the wild type. Where a sequence is shown, tags or fusion partners need not be part of it.

B1: ACP1, Gal4 activation domain fusion (protein, UniProt P53665 1-122)
chain: MALRNAILRHLRVPVQTLGLNQSKIGFLGTIRSFSSHDDHLSREAVVDRVLDVVKSFPKVDPSKVTPEVHFQNDLGLDSLDTVEIVMAIEEEFKLEIPDKEADKIDSCSLAIEYVYNHPMSS
Regarding B1, the binding entry in test [1] is recorded as “binds”; in test [2] it was “no binding”; in test [3], “binds”.

B2: ACP2, Gal4 activation domain fusion (protein, UniProt O80800 1-126)
chain: MAARGAMLRYLRVNVNPTIQNPRECVLPFSILLRRFSEEVRGSFLDKSEVTDRVLSVVKNFQKVDPSKVTPKANFQNDLGLDSLDSVEVVMALEEEFGFEIPDNEADKIQSIDLAVDFIASHPQAK
As to B2, the binding result in test [4] was “binds”; in test [2], “no binding”; in test [3], “binds”.
